The list shows a part of the results. At the low end of the ranking the order means little. Measured with an extract: partners may take part in the binding.

The target of the assay is T1, HNF4alpha2 (COS-7 nuclear extract) (UniProt P41235).
T1 sequence: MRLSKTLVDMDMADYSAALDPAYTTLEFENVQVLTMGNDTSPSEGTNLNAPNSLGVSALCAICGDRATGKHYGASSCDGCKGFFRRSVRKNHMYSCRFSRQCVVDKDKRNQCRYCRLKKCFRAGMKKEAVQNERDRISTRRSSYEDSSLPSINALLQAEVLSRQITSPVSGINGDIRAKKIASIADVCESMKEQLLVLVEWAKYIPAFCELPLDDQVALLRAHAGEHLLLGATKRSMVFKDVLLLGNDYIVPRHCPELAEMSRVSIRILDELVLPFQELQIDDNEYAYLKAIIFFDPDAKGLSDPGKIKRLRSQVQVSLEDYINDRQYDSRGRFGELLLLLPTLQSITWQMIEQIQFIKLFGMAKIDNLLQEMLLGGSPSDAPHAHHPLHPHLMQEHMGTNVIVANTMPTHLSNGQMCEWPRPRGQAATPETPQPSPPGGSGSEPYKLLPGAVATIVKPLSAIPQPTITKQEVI
The experiment in a line: protein-binding microarray. The note with it: COS-7 nuclear extract on double-stranded Agilent 4x180k PBM; binding buffer, salt, pH and temperature not given; high values mean tight binding; double strand, one strand shown; sequences stand for … in …GCCTAGGGAGATTAGAGTATCGGTCGA
As to AAACGCAATTGCCCTACAGCTCCTGAGTCC, the binding signal (log2 normalized intensity) was -1.19.

For the sequence TGAGAACTGGAGCAAAGGTCACTCTTGCTA, the binding signal (log2 normalized intensity) turned out to be 4.63.

Regarding TCCACTGATAAAGTTCTTTTGTGTGTTTAC, the binding signal (log2 normalized intensity) amounted to 2.2.

As for AAAGGGTGAAATAGGAGGATTTTATTCAGG, the binding signal (log2 normalized intensity) was -0.947.

Take CTTGGTATGTCTGATGAATAGAAAGAGGTC: the binding signal (log2 normalized intensity) stood at 1.83.

Regarding ATCTACAGATCTGGAGCCAGCAAGGACTTT, the binding signal (log2 normalized intensity) turned out to be 3.2.

For the sequence CAAACTCACCTGGAGAAGCAGAAGCTGCAC, the binding signal (log2 normalized intensity) was -1.15.

In the case of CCCAGCATGTTTGGGTCACAATCACAAATG, the binding signal (log2 normalized intensity) was determined as 0.895.

Turning to TGCAGAAAAACAGGTTCTGCAACACTTTCT, the binding signal (log2 normalized intensity) was -0.768.

With GTGCTTAGCTATTTCGTTGAATGCTGAACT, the binding signal (log2 normalized intensity) was 1.6.

Consider CCTTGACCTCCTGGGCCCAAGTGCTCCTCC, for which the binding signal (log2 normalized intensity) is 0.173.

Regarding GCCACAACTGAGTATTTAGCTTCCTCCCTT, the binding signal (log2 normalized intensity) was -0.317.

With TATATTCATAACACTTGTATGACCTTTGTT, the binding signal (log2 normalized intensity) amounted to 5.39.

With CACCTGTGTCAACATGGACTTTGTTGTTTG, the binding signal (log2 normalized intensity) was 4.33.

AGCAACAGACTGCTGTGTTACTAGAGCCAA: the binding signal (log2 normalized intensity) was -1.05.

As to ACAGGATGCCTGAGTAATTACTATAAATGC, the binding signal (log2 normalized intensity) was -0.706.

For the sequence GATTGGACTTTGGCCTGTGAATCCACATTC, the binding signal (log2 normalized intensity) was 5.98.

CCAACCTGGCCTGTTTGATCTGGTTTTTGT: the binding signal (log2 normalized intensity) was determined as 1.72.

GAACCGTCTGCCCAGAGCGGCAGCGCCTCC: the binding signal (log2 normalized intensity) was -0.917.

In the case of GTGTCAATTCCAAAGTTCAAGTAGAGCTTC, the binding signal (log2 normalized intensity) is 3.25.

As to TAAGACTAACCTTTGACCATCCACGGATGC, the binding signal (log2 normalized intensity) was 4.62.

With TCCACAGTAAAACATACTGGTGGTTTCACA, the binding signal (log2 normalized intensity) was -0.526.

With CACCTTCAGTCACACTGTTTGCGCAAACTA, the binding signal (log2 normalized intensity) is -0.824.

For the sequence GGATAATGATAAAGAGATTGGACTTTGGCC, the binding signal (log2 normalized intensity) is 8.99.

For TACTGAAAAGTCTACCTTTGGCCTGGGGAT, the binding signal (log2 normalized intensity) is 2.21.

Turning to TGCAAATGGATGAATTTTATCACTCCATCA, the binding signal (log2 normalized intensity) was -1.07.

With ATAGCAAACACGATTGGATGGAAGGTCCTT, the binding signal (log2 normalized intensity) stood at 0.907.

As to TTGAACCTTGGGTCTGTAATCTCACAACTC, the binding signal (log2 normalized intensity) is 1.47.

In the case of ACACAGAGGAGCGACCCAGGCAGCCCCTTT, the binding signal (log2 normalized intensity) is -1.06.

As to AGAAACAGAAAGTCCGGGGGCCAGTTCACT, the binding signal (log2 normalized intensity) was -1.24.

As to TCTGTGAAGGTCAGGAGCCCCACAGAGCAA, the binding signal (log2 normalized intensity) amounted to 2.55.

As for TCTTCTTCTGGGGACTTCGGTCTTTTTTCT, the binding signal (log2 normalized intensity) was 2.18.

Turning to GCTTGTTGGTTCAAGAGAAATGTTATCTCA, the binding signal (log2 normalized intensity) came to 1.23.

As to TGTGTTTCCACAAACACAGATCAGATATGA, the binding signal (log2 normalized intensity) was -0.462.

TTTTTCTTGGGTGTATGGGTATAGGCGCGC: the binding signal (log2 normalized intensity) was 1.45.

In the case of GTGGAATTTGTGCTTATTTCCCATCAAGGA, the binding signal (log2 normalized intensity) was 0.134.

GAGGCAGTGGCCTGAGGCAGCCAGTGAGTG: the binding signal (log2 normalized intensity) is -0.968.

Consider AAGCAACACTTTCTGACCTTTAAGCACCCA, for which the binding signal (log2 normalized intensity) came out at 3.37.

CCCGAAGGGTAGGAGAAGCTGGAAGGACAG: the binding signal (log2 normalized intensity) is -1.12.

As for GAAGCAGGCAGGCAGCTTCCAGGTGACAGT, the binding signal (log2 normalized intensity) is -1.1.

In the case of GAAGCTGTGTAACCCTGGAGCCATAAATCC, the binding signal (log2 normalized intensity) was -1.09.

ATGGCATTTAGGGTATTTCCTAAACCAACT: the binding signal (log2 normalized intensity) was -1.18.

With CTCTGAGATGGACTCCAGTGATCTTATCGC, the binding signal (log2 normalized intensity) stood at 1.84.

For AGATGAGGAATCTGTTGAGAACTGGAGCAA, the binding signal (log2 normalized intensity) is -1.17.

Regarding ACTCTCTCATTCTGATATGCACTGTCAGTT, the binding signal (log2 normalized intensity) is 1.06.

With CCTGCACCTGGAGCCCTTAGGGTCAATGGG, the binding signal (log2 normalized intensity) was 2.53.

As for GTTTCTTTCCCTGGGGTCAATAGTTGTGTA, the binding signal (log2 normalized intensity) is 3.31.

For the sequence GACAAGAGTGACCTCTGGTCATTCAATGTT, the binding signal (log2 normalized intensity) is 3.05.

Consider GTGACTTCCTTCCAAAGGTCACAGTAGGGA, for which the binding signal (log2 normalized intensity) came out at 4.16.

Take TGTTTGCTTTTCTTATTTACCGAAATGTGG: the binding signal (log2 normalized intensity) amounted to 2.1.

Turning to AGGTGACCCTTGAGCTAAGTCCCAAGGGAT, the binding signal (log2 normalized intensity) was 1.06.

Turning to GTTATTTGCTAAAACTGGGCTGGGTAAGCC, the binding signal (log2 normalized intensity) was -0.373.

On to GAGAGAAAAAATCAGAGAGCAAAGGTGATC, for which the binding signal (log2 normalized intensity) is 1.63.

In the case of TACATTTTGCTCTGTTGTGTCAAAGGTCAC, the binding signal (log2 normalized intensity) came to 6.29.

On to TGAAGAAACCAACCCTGCCAAAGGTTAAAA, for which the binding signal (log2 normalized intensity) amounted to 1.64.

For TGGTACTTTGAGCCAGTAAGTCTAGGGGTG, the binding signal (log2 normalized intensity) came to 0.988.

For ATGTGCCCTTTGTACCTGGGGCAAACATCA, the binding signal (log2 normalized intensity) stood at 4.38.

As to CATCCCTCTCCCGCCTCTTGGCCTCCCCCT, the binding signal (log2 normalized intensity) amounted to 6.01.

Consider AAAGGTCAAGAGAATTACAAACAGCCCTGA, for which the binding signal (log2 normalized intensity) is -1.04.

Regarding GCGCAGGCGCAGTCCTCTCTCGCGAGAGCC, the binding signal (log2 normalized intensity) is -1.17.

TGGAATGTCTTTGGGTGGAGGGGAGGTTAT: the binding signal (log2 normalized intensity) was 1.1.

Take GTATTTTTTGAATGACAGTGTCAGGACCTT: the binding signal (log2 normalized intensity) amounted to 1.49.

As to GGCTGAGCATCACCAGTGCAGCTGACCTAC, the binding signal (log2 normalized intensity) was determined as 1.4.

Regarding AATGTTTGTAGGGACTTTGACCCCTAAAAC, the binding signal (log2 normalized intensity) stood at 8.73.

Regarding TCACAACCTCCCTTTGAAGGAGCCACTGGT, the binding signal (log2 normalized intensity) was -1.06.

In the case of AGTGTGGGGTGACTGACTTAACCCTTGCCT, the binding signal (log2 normalized intensity) is 1.84.

Turning to ACATTCTTCCTCACATCTCTTCCTTGCTTT, the binding signal (log2 normalized intensity) stood at 0.646.

As to TCTTCCTTCATCTGGAGACAAATGCTTTTG, the binding signal (log2 normalized intensity) was 0.903.

As for ATCCAGCACAGTGCTGGTACATAGCAGGGG, the binding signal (log2 normalized intensity) was -0.563.

Regarding TGAACAGCTCTTCTTGCCAGCTGGCCTCCT, the binding signal (log2 normalized intensity) is -0.861.

With CAGTCCATTTCAGTGAACTTTTCAATGCTC, the binding signal (log2 normalized intensity) came out at 0.555.

As for GATTTTTAGAGCTGGGGCACAATGCTGCAA, the binding signal (log2 normalized intensity) is -1.17.

For CATTAATTAACCTTTGAGCTGGGTGGCCCT, the binding signal (log2 normalized intensity) was 3.3.
